# Laboratory results as given in paper PMC4336329 (PLoS ONE, 2015).
# In all, about 310,000 compounds went through this assay and about 14,000 (4.5%) showed an effect of 50% or more. Effects have a minus sign here. The list shows a part of the results.
# Target: human ether-à-go-go-related gene (hERG) potassium channel (human, UniProt Q12809)
# Assay: primary screen, population patch clamp on CHO cells stably expressing hERG
# 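Further: peak tail current of the secondary pulse compared with the same well before compound.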
# Sequence of human ether-à-go-go-related gene (hERG) potassium channel (Q12809 whole entry, looked up): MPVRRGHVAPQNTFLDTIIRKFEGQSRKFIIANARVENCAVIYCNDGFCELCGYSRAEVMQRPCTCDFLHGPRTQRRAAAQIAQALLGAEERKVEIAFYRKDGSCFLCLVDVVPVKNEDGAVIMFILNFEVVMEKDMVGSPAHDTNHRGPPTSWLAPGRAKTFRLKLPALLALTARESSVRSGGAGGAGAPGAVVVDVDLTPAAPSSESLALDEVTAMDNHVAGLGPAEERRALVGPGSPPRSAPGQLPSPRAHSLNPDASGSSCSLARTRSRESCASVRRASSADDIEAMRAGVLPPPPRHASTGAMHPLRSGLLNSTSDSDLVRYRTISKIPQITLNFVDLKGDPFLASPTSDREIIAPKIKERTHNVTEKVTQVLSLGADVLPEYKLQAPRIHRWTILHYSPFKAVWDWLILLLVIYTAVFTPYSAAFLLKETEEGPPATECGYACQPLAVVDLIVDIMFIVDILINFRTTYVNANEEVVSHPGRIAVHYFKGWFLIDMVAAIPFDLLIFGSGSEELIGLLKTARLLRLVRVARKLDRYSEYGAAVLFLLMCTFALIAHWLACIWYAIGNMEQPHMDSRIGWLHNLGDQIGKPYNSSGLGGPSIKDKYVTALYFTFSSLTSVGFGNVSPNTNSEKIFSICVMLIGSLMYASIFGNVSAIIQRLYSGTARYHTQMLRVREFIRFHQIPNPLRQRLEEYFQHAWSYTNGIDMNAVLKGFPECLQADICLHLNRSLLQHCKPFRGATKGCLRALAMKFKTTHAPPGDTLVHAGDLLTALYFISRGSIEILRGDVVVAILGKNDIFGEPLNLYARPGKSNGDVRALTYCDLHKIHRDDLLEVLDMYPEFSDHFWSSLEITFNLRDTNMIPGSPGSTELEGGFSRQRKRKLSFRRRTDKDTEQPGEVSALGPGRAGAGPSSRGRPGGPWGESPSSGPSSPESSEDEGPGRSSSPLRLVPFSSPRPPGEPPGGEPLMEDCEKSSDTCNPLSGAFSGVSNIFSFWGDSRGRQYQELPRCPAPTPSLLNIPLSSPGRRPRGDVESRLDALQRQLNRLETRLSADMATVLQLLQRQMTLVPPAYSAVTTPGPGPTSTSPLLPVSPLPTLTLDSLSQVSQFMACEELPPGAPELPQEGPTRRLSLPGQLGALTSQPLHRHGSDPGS
row,Compound,"hERG current change (%, negative = inhibition) at 10uM [%]"
1,CC(=O)Nc1ccc(S(=O)(=O)N(C)CC(=O)NC2=NCCS2)cc1,0.0428
2,COc1cc(C(=S)N2CCCC2)ccc1OCc1ccccc1,8.85
3,CC(C)CC(C(=O)NCc1ccccn1)N1C(=O)c2ccccc2C1=O (stereo not drawn),-1.75
4,CN(C)S(=O)(=O)Oc1cccc(C(=O)Nc2ccc([N+](=O)[O-])cc2)c1,7.22
5,COc1ccc(CCNC(=O)C/C(C)=N/NC(=O)c2cnccn2)cc1,10.7
6,Cc1ccc(CCNC(=O)C2CCCN2S(=O)(=O)c2ccc3c(c2)CCC(=O)N3)cc1 (stereo not drawn),-27.7
7,O=C(COC(=O)CN1C(=O)COc2ccccc21)NC1CCCCC1,-0.159
8,CC(=O)Nc1ccc(S(=O)(=O)N(C)CC(=O)Nc2ccc(Br)cc2F)cc1,-33.4
9,CC(NC(=O)Nc1nnc(C(F)(F)F)s1)N1C(=O)C2C3C=CC(C3)C2C1=O (stereo not drawn),-13.1
10,Cc1c(/C=C2\SC(=O)N(CC(=O)Nc3ccc4c(c3)OCO4)C2=O)c2ccccc2n1C,1.04
11,Cc1ccc(-n2c(SCC(=O)NCCN3C(=O)CSC3=O)nnc2-c2ccccc2F)cc1,-17.4
12,COc1cccc(O)c1CN1CCC(C(=O)Nc2ccc(Oc3cccnc3)cc2)CC1,-47.4
13,Cc1ccc(C(C(=O)NC2CCCCC2)N(C(=O)Cc2c[nH]c3ccccc23)c2ccccc2)o1 (stereo not drawn),4.16
14,CCOC(=O)N1CCC(NC(=O)C2CCCCN2S(=O)(=O)c2ccc(F)cc2)CC1 (stereo not drawn),-4
15,OCC[C@@H]1C[C@@H](O)[C@H](O)[C@]2(Cc3ccccc3CO2)O1,26.2
16,CN(Cc1cnccn1)C(=O)CC1C(=O)NCCN1Cc1ccc(F)cc1Cl (stereo not drawn),20
17,COc1ccc2[nH]c3nc(SCC(=O)NNC(=O)c4ccc(OC)c(OC)c4)nnc3c2c1,-0.146
18,O=c1cc(NCc2ccccc2)[nH]c(=O)[nH]1,15.1
19,O=c1oc2c(O)c(O)cc3c(=O)oc4c(O)c(O)cc1c4c23,9.44

row,Compound,"hERG current change (%, negative = inhibition) at 10uM [%]"
1,CC(C)CC(=O)NC(Nc1ccc([N+](=O)[O-])cc1)C(Cl)(Cl)Cl (stereo not drawn),-19.6
2,COC(=O)C1(S(=O)(=O)c2ccc(C)cc2)CCOCC1,-10
3,Cc1onc(-c2ccccc2Cl)c1C(=O)c1ccccc1,0.785
4,Oc1ccc(-c2n[nH]c(=S)n2Cc2ccco2)cc1,9.81
5,COc1ccc(CNC(=O)C2CCCN(S(=O)(=O)c3c(C)nn(C)c3C)C2)cc1 (stereo not drawn),8.12
6,CCn1cnc2cc(NCc3ccc(N(C)C)cc3)ccc21,-8.28
7,O=C(CN1CCN(c2ccc(F)cc2)CC1)Nc1cc(C(F)(F)F)ccc1Cl,-2.67
8,CC(=O)N1CCc2cc(S(=O)(=O)N3CC(C)CC(C)C3)ccc21 (stereo not drawn),5.39
9,CC(Sc1nc(N)cc(=O)[nH]1)C(=O)Nc1cccc(Cl)c1 (stereo not drawn),20.6
10,O=C(Cc1cccs1)N1CCN(C(=O)C2CCCO2)CC1 (stereo not drawn),1.22
11,COc1cc2c(c(OC)c1OC)-c1ccc(OC)c(=O)cc1C(NC(C)=O)CC2 (stereo not drawn),-6.1
12,Cc1cc(Cl)ccc1OCC(=O)N1CC(C)CC(C)C1 (stereo not drawn),-32.5
13,CCOC(=O)c1nn(-c2ccccc2)c2nc(Nc3ccccc3)cc(=O)n12,-0.0919
14,CC(=O)N/C(=C\c1ccccc1)C(=O)NCc1ccc2c(c1)OCO2,5.79
15,CCOC(CC(=O)NNC(=O)c1c(-c2ccccc2Cl)noc1C)OCC,17.7
16,COc1ccc(OC)c(NC(=O)CCCN2C(=O)C3C4C=CC(C4)C3C2=O)c1 (stereo not drawn),-3.43
17,O=C(C1CCCCC1)N1CCCn2c1nc1ccccc12,-11.7
18,COc1ccc(Nc2c(C)cccc2C)cc1,17.7
19,CCN(CC)CCNC(=O)c1c(O)c2c([nH]c1=O)CCCC2,0.236

row,Compound,"hERG current change (%, negative = inhibition) at 10uM [%]"
1,Cc1ncc(C[n+]2ccc(C)c(C)c2)c(N)n1.[Cl-],13.5
2,COc1ccc(C)cc1NC(=O)Cn1c(=O)oc2ccccc21,19.1
3,CC1CC(C)CN(C(=O)c2ccc(S(=O)(=O)N3CCCC3)cc2)C1 (stereo not drawn),30.6
4,CCOC(=S)SCC(=O)Nc1nccs1,3.24
5,CCn1c(Cc2ccc(OC)cc2)nnc1SCC(=O)N1CCN(c2ccccc2)CC1,-20.6
6,COc1cccc(C2CCCN2Cc2nc(-c3sccc3C)oc2C)c1 (stereo not drawn),20.6
7,COc1ccc(CC(=O)NCc2n[nH]c(=S)n2-c2ccccc2OC)cc1,27.2
8,CCOc1ccc(NC(=O)CSc2nc3c([nH]c4ccccc43)c(=O)n2C)cc1,14.4
9,O=C(O)CN1CCCCCC1=O,37.9
10,COc1ccc(CCN(C)C(=O)C2CCN(Cc3cccc(OC)c3OC)CC2)cc1OC.O=C(O)C(=O)O,-3.13
11,COc1cc(OC)cc(C(=O)Nc2nc(CC(=O)NCCc3ccccc3)cs2)c1,-36
12,Cc1oc2c(CN3CCCC(C)C3)c(O)ccc2c(=O)c1-c1ccccc1 (stereo not drawn),-0.221
13,CC1CCCC(NC(=O)CNCc2ccccc2F)C1C.O=C(O)C(=O)O (stereo not drawn),14.7
14,CCc1ccc(NC(=S)NC(=O)CC(C)C)cc1,9.11
15,Nc1nonc1-c1nc2ccccc2n1CCC(=O)O,-7.6
16,COC(=O)c1ccc(NC(=O)C2C3C=CC(C3)C2C(=O)O)cc1 (stereo not drawn),5.71
17,COC(=O)c1ccc(NC(=O)c2ccc(F)cc2)o1,12.3
18,C=CCNC(=O)C1CCN(c2cc(C)nc(-c3ccccc3)n2)CC1,-58.2
19,CC(C)c1ccc(NC(=O)C2CCN(C(=O)[C@@H]3Cc4ccccc4CN3)CC2)cc1,-67.4
